From PubChem BioAssay AID624296 (National Center for Advancing Translational Sciences (NCATS), 2012)
About 9,900 (2.8%) of roughly 350,000 compounds were called active. Inconclusive results, whose numbers are uncertain, are shown with a selection of clear calls. Calls follow the shape of the dose curve; as a rule, active = well fitted activation curve with a large enough effect; inconclusive = small, poorly fitted or top-dose-only effect; inactive = no such curve, though single readings can be large or run the other way. Potencies of inconclusive entries are left out as doubtful fits.

assay: A quantitative high throughput screen for small molecules that induce DNA re-replication in MCF 10a normal breast cells.; also: nearly all actives have a fitted effect of over 50% in size; as to activity, positive = re-replication: % of control where 0% means no effect; details: MCF 10A DNA re-replication, Hoechst nuclear intensity, 48 h; activity, positive = re-replication: at 46.1 µM (top of the series)
Potency is read from the fitted curve at half-maximal effect; tags tell the direction and shape of the fitted curve.

SMILES | activity, positive = re-replication | Potency
Cc1ccccc1NC(=O)c1cc(N)ccc1N1CCCCC1 | inactive: 2.18% | 
O=C(Cc1cccc(NC(=O)C2CCCN(C(=O)CCc3ccccc3)C2)c1)Nc1cccc(C(=O)N2CCCCC2)c1 (centres undefined) | inactive: -12.6% | 
Cc1ccccc1NC(=S)N(C)Cc1cn(C)c2ccccc12 | inactive: 1.37% | 
Cc1ccc(NC(=O)C2CCN(S(=O)(=O)c3c(C)noc3/C=C/c3ccco3)CC2)nc1 |  | inconclusive [activator, partial curve, poor fit]
O=C1OC(COc2ccc(Br)cc2)CN1c1ccccc1 (centres undefined) | inactive: 1.86% | 
CCOC(=O)COc1ccccc1/C=N/O | inactive: 1.74% | 
COc1ccc(/C=C/C(=O)C2(O)CCCCC2)cc1OC |  | inconclusive [activator, single point]
COc1cccc(CN(C)CC(=O)NCc2ccccc2Cl)c1 |  | inconclusive [activator, partial curve, poor fit]
O=C(NCc1ccco1)NC(=O)c1csc([N+](=O)[O-])c1 | inactive: -7.67% | 
O=c1oc2cc(Oc3ccc(C(F)(F)F)cc3[N+](=O)[O-])ccc2c2c1CCC2 |  | inconclusive [activator, single point]
O=C(O)c1ccc2c3n(nc2c1)-c1ccc(Cl)cc1CO3 | inactive: 6.51% | 
Cc1nc2c3cc(Cl)ccc3n(CCN3CCOCC3)c2s1 |  | inconclusive [activator, partial curve, poor fit]
CSCCC(NC(=O)c1ccccc1)C(=O)O (centres undefined) |  | inconclusive [activator, single point]
O=C(NCc1ccco1)c1cc2ccc(O)cc2oc1=O |  | active: 5.8 µM
Cc1cc(Cl)ccc1Oc1ncc(-c2ccc(Cl)cc2)cn1 | inactive: 26.1% | 
O=C1c2ccccc2C(=O)N1CCCCCCN1C(=O)c2ccccc2C1=O | inactive: -5.68% | 
COc1ccccc1C=NNc1ccc([N+](=O)[O-])cn1 | inactive: -0.641% | 
NC(=O)NNC1=Nc2cccc3cccc1c23 | inactive: -0.703% | 
O=C(NCCn1c(C(F)(F)F)nc2cc(C(F)(F)F)ccc21)[C@H]1CCCN1c1nc(CN2CCCCC2)cs1 |  | inconclusive [activator, single point]
O=C(OCC(=O)N1CCCCC1)c1ccc2c(c1)C(=O)N(Cc1ccco1)C2=O | inactive: 2.02% | 
Cc1onc(-c2ccccc2Cl)c1-c1nc(-c2ccccn2)no1 |  | inconclusive [activator, single point]
Cc1ccnc(Nc2nc(-c3sc(C)nc3C)cs2)c1 |  | active: 23.1 µM
O=C(C1=COCCO1)N1CCN(c2nc3ccc([N+](=O)[O-])cc3s2)CC1 | inactive: 0.489% | 
CCCOc1ncnc2c1[nH]c1ccc(OC)cc12 | inactive: 8.48% | 
C/C=C/c1ccc(OCCOCCOc2cccc3cccnc23)c(OC)c1 |  | inconclusive [activator, partial curve, poor fit]

SMILES | activity, positive = re-replication | Potency
O=C(CC1SC(=NCCc2ccccc2)N(/N=C/c2cccs2)C1=O)Nc1ccc(Cl)cc1 (centres undefined) |  | inconclusive [activator, partial curve]
CN1CCC(N(C)C(=O)c2ccc(Cl)c(S(=O)(=O)N(C)c3ccc(Cl)cc3)c2)CC1 |  | inconclusive [activator, single point]
CCNS(=O)(=O)c1ccc(Br)c(OC)c1 | inactive: -8.88% | 
COc1ccc(C(CNC(=O)COc2cc(C)c(Cl)c(C)c2)N2CCCCC2)cc1 (centres undefined) |  | inconclusive [activator, single point]
COc1ccc2c(c1)c1c3n2CCN(C)C3=NCC1 |  | inconclusive [activator, full curve, poor fit]
COc1ccc(-c2nc3oc4cc(OC)ccc4c(=O)c3c(=O)n2Cc2ccco2)cc1 |  | inconclusive [activator, partial curve, poor fit]
Oc1cccc(Nc2nc(O)c(/C=C3\C=Nc4ccccc43)s2)c1 |  | inconclusive [activator, single point]
COC(=O)C1=C(C)N(C)C(=S)NC1c1ccc(Cl)cc1 (centres undefined) |  | inconclusive [activator, partial curve, poor fit]
Cn1nc(C(F)(F)F)c2cc(NC(=O)OCC(C)(C)C)sc21 |  | inconclusive [activator, single point]
OCCC1CN(Cc2ccc3nsnc3c2)CCN1CCc1ccccc1 (centres undefined) |  | inconclusive [activator, partial curve, poor fit]
C=CCOc1c(Cl)cc(CNCCCN2CCOCC2)cc1OC |  | inconclusive [activator, partial curve, poor fit]
C[C@H](NC(=O)c1[nH]cnc1C(=O)Nc1ccon1)c1ccccc1 | inactive: 29.7% | 
O=C(N/N=C/c1ccc(N2CCOCC2)o1)c1cccc([N+](=O)[O-])c1 | inactive: 16.4% | 
O=C(CCS(=O)(=O)c1ccc(Br)cc1)N1CCN(c2ccccc2Cl)CC1 |  | inconclusive [activator, partial curve, poor fit]
Cc1cccc(C)c1NC(=O)COC(=O)c1ccc2[nH]c3c(c2c1)CCCC3 |  | active: 18.4 µM
O=C(O)CC1NC(=S)N(c2ccccc2)C1=O (centres undefined) |  | inconclusive [activator, single point]
CCOC(=O)/C=C/C(=O)Nc1nccs1 |  | active: 18.4 µM
N#Cc1ccccc1NC(=O)CC1c2ccccc2Oc2ccccc21 |  | inconclusive [activator, partial curve, poor fit]
O=c1c2ccccc2nc2n1CCC2O (centres undefined) | inactive: 2.95% | 
CCOC(=O)c1c(NC(=O)Cc2cccs2)sc(C(=O)N2CCCCC2)c1C |  | inconclusive [activator, partial curve, poor fit]
C/C(=N\Nc1cccc2cccnc12)c1ccc(N)cc1 | inactive: 19.9% | 
Cc1ccc(OCC(=O)NNc2c3ccccc3nc3ccccc23)cc1 |  | inconclusive [activator, single point]
O=C(Nc1ccccc1)NN(C(=O)CCl)c1ccccc1 |  | active: 8.2 µM
COC(=O)[C@H](C)N(Cc1ccc(Cl)c(Cl)c1)S(=O)(=O)CCNC1CCCC1 | inactive: 7.19% | 
